# Source: PubChem BioAssay (Tox21)
# Inconclusive results are not listed. Calls come from the whole dose curve; as a rule, active = well fitted inhibition curve with a large enough effect in the repeat runs; inconclusive = weak or mixed curves; inactive = no such curve, though single readings can be large or run the other way. Some structures have more than one record in an assay (separate samples or runs), and their calls can disagree. The source holds more than one record for some entries. This list holds those alone. There may be further records. Values that stand side by side are repeated measurements across runs, samples, wells, individuals or studies. What stands in brackets tells the records apart. Letters hold for one entry only.
# Assay: qHTS assay to identify small molecule antagonists of the thyroid receptor (TR) signaling pathway (AID 743065); note: nearly all actives have a fitted effect of over 55% in size
# Procedure, shortened: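 GH3.TRE-Luc rat pituitary cells (two TREs driving luciferase) were dosed with compound, then stimulated with 1 nM T3 (final) for 23.5 h at 37 C. ONE-Glo luminescence was the read-out, with CellTiter-Fluor fluorescence as the cytotoxicity counter-screen.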
# Potency is the fitted concentration of half-maximal effect.
smiles,measurement,value
CC(C)OC(=O)OCOP(=O)(CO[C@H](C)Cn1cnc2c(N)ncnc21)OCOC(=O)OC(C)C,Potency,inactive [sample A] and active: 23.7 µM [sample B]
